From PubChem BioAssay AID1508623 (National Center for Advancing Translational Sciences (NCATS), 2021)
Values joined by “and” are separate entries in the source; they are usually repeats but may differ in a detail not shown here. Identical values can stand only once. Among all 48,000 compounds or so, about 450 (0.94%) were called active. This list was built around the results that the source calls inconclusive (neither active nor inactive); the mix of calls is not that of the screen. The call rests on the fitted dose curve; in most records, active means well fitted inhibition curve with a large enough effect; inconclusive means small, poorly fitted or top-dose-only effect; inactive means no such curve, though single readings can be large or run the other way. Potencies beside an inconclusive call are fits to weak or partial responses and may not hold up.

Experiment: Primary qHTS for Identification of Small Molecule Inhibitors of Huntingtin Promoter Activity; further: nearly all actives have a fitted effect of over 50% in size
Conditions: HEK293 HTT promoter firefly luciferase reporter (activity 0% = vehicle and -100% = no light), 24 h; series mostly up to 57.5 µM
Outline: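 Firefly luciferase signal from promoter-reporter HEK293 cells was scaled between vehicle (0%) and zero RLU (-100%). Compounds were tested at final concentrations of up to 57.5 uM over 24 h at 37 degrees C. PTC124 at 50 uM final served as control inhibitor.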
Potency means the concentration at half of the fitted maximal effect; tags describe the fitted curve by direction and shape.

| Compound | Potency |
| --- | --- |
| CN(C)c1ccc(C(=O)NCCCCCCC(=O)NO)cc1 | inactive |
| COc1ccc(OCCn2c(C3CC(=O)N(c4ccc(F)cc4)C3)nc3ccccc32)cc1 (stereo not drawn) | inconclusive: 28.2 µM [inhibitor, partial curve, poor fit] |
| COc1ccccc1Nc1cc(C)nc2nc(-c3ccccc3)nn12 | inactive |
| COC(=O)c1c(NC(=O)c2ccc(S(=O)(=O)N3CCCC(C)C3)cc2)sc2c1CCN(C(C)C)C2 (stereo not drawn) | inconclusive: 17.8 µM [inhibitor, partial curve] |
| COc1cccc(N2CCN(C(=O)C3CCCN(S(=O)(=O)c4ccc(Br)s4)C3)CC2)c1 (stereo not drawn) | inconclusive: 39.8 µM [inhibitor, single point] |
| Cc1ccc(C)n1-c1nnc(N2CCC(C(=O)NCc3ccccc3Cl)CC2)s1 | inactive |
| COc1ccc(S(=O)(=O)N(Cc2nc(-c3ccc(C)cc3)no2)C2CCCCC2)cc1 | inconclusive: 39.8 µM [inhibitor, single point] |
| CCCCC12CN3CC(C)(CN(C1)C3c1cc(Br)ccc1O)C2=O (stereo not drawn) | inconclusive: 25.1 µM [inhibitor, partial curve, poor fit] |
| Cc1ccc(-c2nc3scc(CCNC(=O)c4cccc(Br)c4)n3n2)cc1 | inconclusive: 28.2 µM [inhibitor, single point] |
| Cc1ccc(NC2=C(c3ccc(C(F)(F)F)cc3)C(=O)c3ccccc32)cc1F | inconclusive: 17.8 µM [inhibitor, partial curve, poor fit] |
| CCOc1ccccc1NC(=O)CSc1nc2ccccc2c2nc(CCn3cncc3C)nn12 | inactive |
| Cc1csc2nc(COC(=O)c3ccc(NC(=O)COc4ccccc4F)cc3)cc(=O)n12 | inconclusive: 28.2 µM [inhibitor, partial curve, poor fit] |
| COc1ccccc1CNC(=O)C(=O)NCC(c1cccs1)S(=O)(=O)c1ccc(F)cc1 (stereo not drawn) | inconclusive: 39.8 µM [inhibitor, single point] |
| CC1=C(C(=O)OCC2CCCCC2)C(c2ccc(F)cc2F)CC(=O)N1 (stereo not drawn) | inconclusive: 28.2 µM [inhibitor, single point] |
| CCOc1ccccc1NC(=O)CCn1c(-c2ccc(OC)cc2)cc(C(C)=O)c1C | inconclusive: 14.1 µM [inhibitor, partial curve] |
| COc1ccc(-c2nnc(SCC(=O)Nc3cccc(F)c3)s2)cc1 | inconclusive: 25.1 µM [inhibitor, single point] |
| Nc1ncn([C@@H]2O[C@H](CO)[C@@H](O)[C@@H]2O)c(=O)n1 | inconclusive: 9.68 µM [inhibitor, full curve] |
| COc1cccc(CNC(=O)c2c(C)nn(-c3cccc(C)c3)c2-n2cccc2)c1 | inconclusive: 17.8 µM [inhibitor, partial curve] |
| O=C(NCCCc1ccccc1)c1nn(-c2ccccc2F)nc1CO | inconclusive: 22.4 µM [inhibitor, single point] |
| O=C(NCCc1ccccc1)c1ccc(CSc2nc3cccnc3n2Cc2ccc(F)cc2)cc1 | inconclusive: 31.6 µM [inhibitor, partial curve, poor fit] |

| Compound | Potency |
| --- | --- |
| O=C(NCc1ccc(F)cc1)C1CCN(C(=O)c2ccc(-n3ccc4ccccc43)s2)CC1 | inconclusive: 35.5 µM [inhibitor, single point] |
| COc1ccc(CC(=O)Nc2ccc3nc(Nc4cccc(Cl)c4)cc(C)c3c2)cc1OC | inconclusive: 31.6 µM [inhibitor, partial curve] |
| O=C(CCCN1CC=C(n2c(=O)[nH]c3ccccc32)CC1)c1ccc(F)cc1 | inconclusive: 39.8 µM [inhibitor, single point] |
| COc1ccccc1Nc1c2c(nc3ccc(NC(=O)/C=C/c4cccc(OC)c4OC)cc13)CCCC2 | inconclusive: 28.2 µM [inhibitor, single point] |
| COc1cc(OC)c(NC(c2nnc(-c3ccccc3)o2)c2ccc(F)cc2Cl)cc1Cl (stereo not drawn) | inconclusive: 39.8 µM [inhibitor, single point] |
| COc1ccc2nc(N(Cc3cccnc3)C(=O)CCc3ccccc3)sc2c1 | inconclusive: 39.8 µM [inhibitor, single point] |
| CCOC(=O)c1c(Oc2ccc(C(=O)OC)cc2)nnc(-c2ccccc2)c1-c1ccccc1 | inconclusive: 0.891 µM [inhibitor, full curve, poor fit] |
| Cc1ccc(C)c(N(C)C(=O)c2cn(C)c(=O)c3ccccc23)c1 | inconclusive: 39.8 µM [inhibitor, partial curve, poor fit] |
| COc1cc(CN(C(=O)c2cc3ccccc3oc2=O)C2CCS(=O)(=O)C2)cc(OC)c1OC (stereo not drawn) | inactive |
| Cc1cccc(Cn2c(SCc3ccc(C(=O)N4CCCCCC4)cc3)nc3ccncc32)c1 | inconclusive: 20 µM [inhibitor, partial curve, poor fit] |
| Cc1ccc(Cn2c(=O)n(CCCCC(=O)NCCc3ccc(Cl)cc3)c(=O)c3ccccc32)cc1 | inconclusive: 28.2 µM [inhibitor, single point] |
| CC1CCc2c(sc3nnn(Cc4ccc(F)cc4)c(=O)c23)C1 (stereo not drawn) | inconclusive: 28.2 µM [inhibitor, single point] |
| COc1ccc(NC(=O)CSc2ncc(-c3ccc(Cl)cc3)[nH]2)cc1OC | inconclusive: 31.6 µM [inhibitor, partial curve, poor fit] |
| CCOC(=O)c1sc2ccccc2c1S(=O)(=O)Nc1ccc(N(C)C)cc1 | inconclusive: 35.5 µM [inhibitor, partial curve, poor fit] |
| CCc1ccccc1NC(=O)c1cc(S(=O)(=O)N(CC)c2ccccc2)ccc1F | inconclusive: 25.1 µM [inhibitor, partial curve, poor fit] |
| COc1ccccc1NC(=O)CCCOc1cc(=O)n(C)c2ccccc12 | inactive |
| Cc1ccc(S(=O)(=O)c2nnn3c2nc(NCc2ccc(F)cc2)c2sccc23)cc1 | inactive |
| CCCNC(=O)c1ccc2c(c1)N(Cc1cccc(C)c1)C(=O)c1ccccc1S2 | inconclusive: 31.6 µM [inhibitor, partial curve, poor fit] |
| COc1ccccc1NC(=O)Cn1c(SCC(=O)Nc2ccc(F)cc2)nc2ccccc21 | inconclusive: 35.5 µM [inhibitor, partial curve, poor fit] |
| COc1cc2nc(N3CCN(C(=O)c4ccco4)CC3)nc(N)c2cc1OC | inactive and inconclusive: 43.2 µM [inhibitor, partial curve, poor fit] |

| Compound | Potency |
| --- | --- |
| COc1ccc(C)cc1NC(=O)C(=O)NCC(c1cccnc1)N1CCc2ccccc21 (stereo not drawn) | inconclusive: 28.2 µM [inhibitor, single point] |
| O=C1CC(c2ccccc2)Sc2ccccc2N1Cc1ccc(F)cc1 (stereo not drawn) | inconclusive: 39.8 µM [inhibitor, single point] |
| COc1ccccc1CNC(=O)c1c[nH]c2ccc(S(=O)(=O)Nc3cc(C)cc(C)c3)cc2c1=O | inconclusive: 39.8 µM [inhibitor, single point] |
| CCCOc1ccc(CNC(=O)CCCn2ncn3c(cc4sc(CC)cc43)c2=O)cc1 | inconclusive: 1.78 µM [inhibitor, full curve] |
| CCNS(=O)(=O)c1ccc(NC(=O)CSc2nc(-c3ccco3)cc(C(F)(F)F)n2)cc1 | inconclusive: 14.1 µM [inhibitor, partial curve, poor fit] |
| Cc1ccc(-n2cc(-c3ccccc3)c3c(N4CCCCC4)ncnc32)cc1 | inconclusive: 25.1 µM [inhibitor, single point] |
| Cc1cccc(Nc2nnc(-c3ccc(C)c(S(=O)(=O)N4CCCCC4)c3)c3ccccc23)c1 | inconclusive: 7.08 µM [inhibitor, partial curve] |
| CCN(CC)c1ccc(NC(=O)c2cccn2-c2nnc(N3CCCCC3)s2)c(C)c1 | inconclusive: 28.2 µM [inhibitor, single point] |
| COc1ccc(CCNC(=O)CCc2c(C)nc3c4c(C)cc(C)nc4nn3c2C)cc1OC | inactive |
| CC(=O)c1c(C)oc2ccc(N(C(=O)Oc3ccccc3)S(=O)(=O)c3ccc(Cl)cc3)cc12 | inactive |
| CCOc1ccccc1Nc1ncnc2c1cnn2-c1ccc(C)cc1 | inconclusive: 35.5 µM [inhibitor, partial curve, poor fit] |
| CC1CN(C(=O)N2CCC(C(=O)NCCCc3ccccc3)CC2)c2cc(Cl)ccc2O1 (stereo not drawn) | inconclusive: 31.6 µM [inhibitor, single point] |
| CCCCOc1ccc(CNC(=O)c2cccc(NC(=O)N3CCSc4ncccc43)c2)cc1 | inconclusive: 10 µM [inhibitor, partial curve] |
| COc1cccc(Cn2cc(C(=O)c3ccccc3)c(=O)c3cc4c(cc32)OCO4)c1 | inconclusive: 39.8 µM [inhibitor, single point] |
| Cc1ccc(NCc2cccn2-c2nnc(N3CCC(C(=O)NCCc4ccc(Cl)cc4)CC3)s2)cc1 | inconclusive: 20 µM [inhibitor, partial curve, poor fit] |
| COc1ccc(-n2c(C)nc3c(cnn3-c3ccc(F)cc3)c2=O)cc1 | inconclusive: 15.8 µM [inhibitor, partial curve, poor fit] |
| CSc1nn(Cc2ccc(C)cc2)c(N)c1S(=O)(=O)c1ccccc1 | inconclusive: 25.1 µM [inhibitor, partial curve, poor fit] |
| CCOC(=O)c1c(NC(=O)C2c3ccccc3Oc3ccccc32)sc(C)c1C | inconclusive: 39.8 µM [inhibitor, partial curve, poor fit] |
